In ChEMBL document CHEMBL4888484, “Replenishing the malaria drug discovery pipeline: Screening and hit evaluation of the MMV Hit Generation Library 1 (HGL1) against asexual blood stage Plasmodium falciparum ,using a nano luciferase reporter read-out” (2022):
The whole screen tested about 150,000 compounds, of which about 540 (0.36%) showed an effect of 50% or more. Some of the results follow.

tested on: Plasmodium falciparum; assay: Primary screen in NF54 nanoGlo assay, in single point, at 2uM, 72h; a lower Z score goes with more inhibition; assay type: functional, Erythrocyte; settings: timepoint 72 hour

| Compound | % Inhibition [%] | Z score |
| --- | --- | --- |
| CCCCN(C(=O)c1cccc[n+]1[O-])[C@@H](CC)c1ccccc1 | 1 | -0.08 |
| CS(=O)(=O)NCc1ccc(C(N)=O)cc1 | -4 | 0.51 |
| Nc1nnc(CCCn2cc(-c3ccc4ccccc4c3)nn2)s1 | 6 | -0.8 |
| CN(C(=O)[C@H]1CC12CC2)c1ccc(F)cn1 | -17 | 1.47 |
| O=C(Nc1nnc2ccccn12)c1ccc(-c2ccccc2F)s1 | -6 | 1 |
| Cc1ccc(-n2nc3c(=O)n([C@@H](C)C(=O)NCc4cccc(F)c4)nc(C)c3c2C)cc1 | 16 | -1.81 |
| CON(C)C(=O)c1ccnc(OCC2CCOCC2)c1 | -9 | 1.68 |
| CC1(C)C(NC(=O)Cc2cccc(O)c2)C2CCCOC21 (stereo not given) | -6 | 0.6 |
| COCC1CCN(C(=O)c2nnn(-c3ccc(F)c(F)c3)c2C)CC1 | -12 | 1.32 |
| CC(C)n1nccc1C(=O)NCCc1ncc[nH]1 | -10 | 0.94 |
| COc1ccc(S(=O)(=O)Oc2ccc(Oc3ncc(Cl)cc3Cl)cc2)cc1OC | -17 | 2.24 |
| CC(C)N(Cc1cnn(C)c1)C(=O)C[C@H]1C(=O)NCCN1Cc1cccc2ccccc12 | -3 | 0.41 |
| O=C(NCC[C@H](O)C1CC1)c1cccs1 | -7 | 0.95 |
| COCCNC(=O)c1nnn2c1c(=O)[nH]c1cc(C)ccc12 | 2 | -0.29 |
| COC1CCCN(C(=O)CC2(c3ccccc3)CC(=O)N(Cc3cccnc3)C2=O)C1 (stereo not given) | 1 | -0.09 |
| CCOc1ccc(Cl)cc1CN(C)Cc1cc2n(n1)CCCNC2 | -14 | 1.39 |
| CS(=O)(=O)N1CCN(C(=O)COc2ccc(OCc3ccccc3)cc2)CC1 | 1 | -0.13 |
| Cc1cnc(NC(=O)c2ccccc2C(=O)c2ccc(Cl)cc2)s1 | 35 | -3.36 |
| CCn1cc(C2(c3cn(CC)c4ccccc34)C(=O)Nc3ccccc32)c2ccccc21 | 0 | -0.02 |
| Cc1cncc(=O)n1CC(=O)N(C1CCCC1)[C@H]1CCS(=O)(=O)C1 | -12 | 1.39 |
| COC[C@H]1[C@H](NS(=O)(=O)c2cccc3nn(C)nc23)[C@H]2CCO[C@H]21 | -17 | 2.41 |
| COc1ccccc1CCC(=O)N1CCC2(CCC(=O)N(CC3CC3)CC2)CC1 | -2 | 0.25 |

| Compound | % Inhibition [%] | Z score |
| --- | --- | --- |
| O=C(NCC1(c2ccccc2Cl)CCOCC1)N1CCOCC1 | -4 | 0.54 |
| CN(CC(=O)Nc1ccc(Cl)cc1)C(=O)CCC1CCCC1 | -1 | 0.08 |
| C=CCN(c1ccccc1OC)S(=O)(=O)c1cccc(C(=O)Nc2ccc(N3CCOCC3)c(S(=O)(=O)Nc3ccc(Cl)cc3)c2)c1 | -7 | 1.07 |
| CC[C@H]1CN(C(=O)c2c[nH]c(C(F)(F)F)c2)CCCO1 | -3 | 0.48 |
| CCC(=O)c1c[nH]c(C(=O)NCc2cccnc2)c1 | -2 | 0.29 |
| CCOCCCNC(=O)Nc1nnc(N(C)Cc2ccccc2)s1 | -7 | 1.09 |
| CN1C[C@@H](NC(=O)Cn2c(C3CC3)nc3ccccc32)C[C@H]1C(=O)O | -3 | 0.45 |
| Cc1cccc(NC(=O)c2cc3nccc(-c4ccc(F)cc4)n3n2)c1 | -14 | 1.77 |
| CCCN1CCn2c1nc(COC)cc2=O | -4 | 0.81 |
| CC(C)Nc1c(Cl)cccc1NCC(=O)N[C@@H](C)C(=O)N(C)C | -10 | 1.23 |
| CC[C@@](NC(=O)Cc1cccc(C)c1)(C(N)=O)C(C)C | -2 | 0.21 |
| COc1ccccc1C(=O)/N=C(/Nc1ccccc1)C(Cl)(Cl)Cl | -8 | 1.31 |
| COc1cccc(C(=O)N2CCN(C(=O)Cn3nnnc3CN3CCCC3)CC2)c1 | -18 | 1.57 |
| CCc1cnccc1C(=O)N(Cc1ccccn1)c1ccncc1 | -11 | 1.51 |
| O=C(NCc1ccc(Cl)s1)N[C@H]1CCCC12CCOCC2 | -18 | 1.58 |
| CN(CC(=O)NC1CC1)c1ncnc2cc(Cl)ccc12 | -5 | 0.55 |
| CCN(C)C(=O)[C@H]1CN(C(=O)OC(C)(C)C)C[C@@H]1C(=O)N(C)CC | -9 | 0.84 |
| c1nc(OCC2CCN(c3ncnc4[nH]cnc34)CC2)cc(C2CC2)n1 | 4 | -0.67 |
| O=C(Nc1nnc2ccccn12)c1ccc(CNC(=O)c2cccs2)cc1 | -15 | 1.48 |
| CN1CCN(C(=O)C[C@H]2Cn3ncc(-c4ccc(Cl)cc4)c3NC2=O)CC1 | -10 | 1.84 |
| CCCN(C)S(=O)(=O)NCC1CCCC1O (stereo not given) | -10 | 0.98 |
| Cc1ccc(C[C@H](CO)CNC(=O)c2cc(C)c(C)o2)cc1 | -11 | 1.43 |

| Compound | % Inhibition [%] | Z score |
| --- | --- | --- |
| Cc1csc(CN2CCN(S(C)(=O)=O)[C@@H](C)C2)n1 | 5 | -0.78 |
| CCNc1nc(C)c(C(=O)N2C[C@H]3CC=CC[C@H]3C2)s1 | -11 | 1.06 |
| CC(=O)c1ccccc1C(=O)NC1CCCC1C (stereo not given) | 39 | -3.95 |
| CN1C(=O)CN(C(=O)c2cc(C3CC3)nn2C)c2ccccc21 | -16 | 2.02 |
| O=C(Nc1ccccc1-c1cc(F)c(F)c(F)c1)N1CC[C@@H](O)C1 | -18 | 2.07 |
| O=C(NCc1ccon1)[C@@H]1CC(Cc2cccc3ccccc23)=NO1 | -8 | 1.44 |
| Cc1cc(F)ccc1OC1(C(=O)O)CCN(C(=O)CCC2CC2)CC1 | -5 | 0.88 |
| COC(=O)c1ccccc1NCc1ccc2c(c1)OCCO2 | -4 | 0.53 |
| CCc1ccc(NC(=O)N(Cc2ccccc2)Cc2cccn2Cc2ccc(Cl)cc2)cc1 | -4 | 0.78 |
| Cc1cc(NC(=O)c2ccco2)n(-c2nc3c(cnn3-c3ccc(Cl)cc3)c(=O)[nH]2)n1 | -12 | 2.26 |
| Cc1ccn2nc(C(=O)N3CCC[C@H](N)C3)cc2c1 | -12 | 1.65 |
| COC(=O)C1CC(Oc2ccccc2F)CN1C(=O)Nc1cccc(C)c1 (stereo not given) | -7 | 1.3 |
| CCCCOCCCNS(=O)(=O)c1ccc(NC(C)=O)cc1 | -13 | 2.45 |
| COc1ccc(S(=O)(=O)Oc2ccccc2CN(C[C@H]2CCCO2)C(=O)NC(C)C)cc1 | 2 | -0.21 |
| CN1CCN2C(=O)N(Cc3ccc(F)cc3)C[C@H]2C1 | 15 | -1.79 |
| Cn1ccc2cc(S(=O)(=O)N3CCC[C@H](C(=O)NCCc4cccs4)C3)ccc21 | -21 | 3.9 |
| O=C(Nc1cccc(F)c1)Nc1cccc(-c2nnc3n2CCCC3)c1 | -8 | 0.77 |
| Cc1noc(C)c1CCc1ncnn1C1Cc2ccccc2C1 | -13 | 2.18 |
| O=C(NC[C@@](O)(c1ccco1)C1CC1)c1ccco1 | -12 | 2.02 |
| CCCCCOCC(=O)NCC1CC(=O)NC(C)C1 (stereo not given) | 6 | -1.21 |
| Cc1sc(NC(=O)c2cccnc2)nc1-c1ccc2c(c1)NC(=O)[C@H](C)O2 | -3 | 0.43 |
| C[C@H]1CC(C)(C)c2ccccc2N1C(=O)c1cc(S(=O)(=O)N(C)C)cn1C | -8 | 1.33 |

| Compound | % Inhibition [%] | Z score |
| --- | --- | --- |
| CCC[C@H](C)NC(=O)c1cc(C)ccc1C | -8 | 1.45 |
| O=C(C[C@@H]1NC(=O)N(c2ccccc2)C1=O)NCCc1nc2ccccc2[nH]1 | -4 | 0.5 |
| Nc1ccn2ncc(C(=O)NC3CCC4C(C3)C4(F)F)c2c1 (stereo not given) | 14 | -2.03 |
| Cc1ccc(N2CC3C4CC5C(OC2C35)C4O)cc1 (stereo not given) | -13 | 1.56 |
| CC[C@H]1CCCCN1S(=O)(=O)c1cccc(-c2nc(-c3ccc(C)cc3)no2)c1 | -10 | 1.5 |
| c1ccc(COCc2cn(CCN3CCOCC3)nn2)cc1 | -8 | 1.24 |
| COCc1cc(N2C[C@H]3C[C@H](C2)[C@@H]2CCCC(=O)N2C3)ncn1 | -16 | 1.76 |
| O=C(Nc1ccc(N2CCOCC2)cc1)[C@H]1CCN(c2cn[nH]c(=O)c2)C1 | -14 | 1.91 |
| Oc1c(F)cc(F)cc1-c1ccc(F)c2cccnc12 | 1 | -0.18 |
| Cc1sc(NC(=O)[C@@H]2COc3ccccc3O2)nc1-c1ccccc1 | -5 | 0.92 |
| O=C(NCc1cccc(NC(=O)c2ccco2)c1)c1ccoc1 | -20 | 3.8 |
| O=C(CNC(=O)c1cccs1)Nc1ccc2c(c1)OCCCO2 | -8 | 0.83 |
| CCN(C[C@H]1CCOC1)C(=O)NCc1csc(C)n1 | -12 | 2.22 |
| O=C(Nc1nc2cc3c(cc2s1)OCCCO3)c1ccoc1Cl | 0 | 0.08 |
| Cc1cc(C(F)(F)F)c2c(=O)n(CC(=O)N3CCCc4ccccc43)n(C)c2n1 | 0 | 0.05 |
| CCCCc1noc(C(C)NCC2CCOC2c2cnn(C)c2)n1 (stereo not given) | 5 | -0.55 |
| CCC(=O)Cn1nnnc1Cc1ccc(Br)cc1 | -9 | 1.37 |
| NC(=O)[C@@H]1CN(C(=O)c2ccncc2C(F)(F)F)CCO1 | 3 | -0.5 |
| CC1CN(C(=O)CCCn2ccnc2)CC(C)N1 (stereo not given) | -5 | 0.53 |
